Assay results as given in PubChem BioAssay AID1508623 (National Center for Advancing Translational Sciences (NCATS), 2021).
Screen size: about 48,000 compounds; about 450 (0.94%) were called active. Inconclusive results (about 19%) are left out. Calls come from the whole dose curve; as a rule, active = well fitted inhibition curve with a large enough effect; inconclusive = small, poorly fitted or top-dose-only effect; inactive = no such curve, though single readings can be large or run the other way. Some of the results follow.

experiment: Primary qHTS for Identification of Small Molecule Inhibitors of Huntingtin Promoter Activity; settings: HEK293 HTT promoter firefly luciferase reporter (activity 0% = vehicle and -100% = no light), 24 h; series mostly up to 57.5 µM; activity change, negative = inhibition: at the top concentration; note: nearly all actives have a fitted effect of over 50% in size
Summary of the method: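 HEK293 Fluc reporter, 2,500 cells/well, 24 h pre-culture; cpds up to 57.5 uM final, 24 h 37 degrees C; Dual-Glo, 10 min RT; normalized vehicle = 0%, zero RLU = -100%.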
Potency is the fitted concentration of half-maximal effect.

Row | Compound | activity change, negative = inhibition | Potency
1 | Cc1ccc(OCCCn2c(CCNC(=O)C3CCCCC3)nc3ccccc32)c(C)c1 | inactive: 1.08% | 
2 | COc1ccc(OC)c(NC(=O)CN2C(=O)c3ccccc3Sc3ccc(C(=O)N4CCCC4)cc32)c1 | inactive: 0.27% | 
3 | COc1ccc(N(Cc2cccs2)C(=O)Nc2ccccc2)cc1 | inactive: -12.7% | 
4 | COc1ccccc1-c1nnc(SCCOc2ccccc2C)o1 | inactive: -5.89% | 
5 | CCc1cccc(CC)c1NS(=O)(=O)c1ccc2c(c1)CCN2C(=O)C1CC1 | inactive: -22.1% | 
6 | CCOC(=O)c1cc(-c2ccc(OC)c(S(=O)(=O)Nc3ccc(OC)cc3OC)c2)on1 | inactive: 1.14% | 
7 | Cc1ccc(CNC(=O)c2nnc(Cc3cccc(F)c3)o2)cc1 | inactive: -14% | 
8 | COC(=O)c1sccc1S(=O)(=O)N1CCN(c2ccccc2OC)CC1 | inactive: -3.6% | 
9 | COc1ccc(N2CC(C(=O)Nc3ccc(NC(C)=O)cc3)CC2=O)cc1 (stereo not drawn) | inactive: 2% | 
10 | COCCCNC(=O)C(=O)NCC(c1ccc2c(c1)OCO2)N1CCOCC1 (stereo not drawn) | inactive: -7.43% | 
11 | CCN1C(=O)c2ccccc2S(=O)c2ccc(C(=O)NCc3ccc(F)cc3)cc21 (stereo not drawn) | inactive: -21.7% | 
12 | COc1ccc(NC(=O)C2=C(C)Nc3nc(CCCO)nn3C2c2ccc(O)cc2)cc1 (stereo not drawn) | inactive: -14.1% | 
13 | Cc1ccc(C)c(S(=O)(=O)c2nnn3c2nc(N2CCOCC2)c2sccc23)c1 | inactive: -7.79% | 
14 | CC(C)N(Cc1ccccc1)c1ncnc2c1nnn2C | inactive: -9.57% | 
15 | CCOc1ccc(C(c2c(O)cc(C)n(CCOC)c2=O)N2CCN(c3ccccc3F)CC2)cc1 (stereo not drawn) | inactive: 1.27% | 
16 | CCc1cccc(NC(=O)CCc2c(C)nc3c(c2C)c(=O)n(C)c(=O)n3C)c1 | inactive: -20.2% | 
17 | Cc1ccc(CNC(=O)CCSCc2ccccc2F)cc1 | inactive: 0.365% | 
18 | Cc1cc(C)c2oc(C(=O)Nc3sc4c(c3C(=O)NCc3ccco3)CCCC4)cc(=O)c2c1 | inactive: 0% | 
19 | Cc1ccc(Nc2c(-c3cc(Br)ccc3F)nc3cc(C)ccn23)cc1 | inactive: -25.2% | 
20 | Cc1ccc(NC(=O)c2cccc(N3CCCS3(=O)=O)c2)cc1 | inactive: 9.99% | 
21 | COc1ccccc1NC(=O)Cn1c(=O)n(-c2ccc(C)cc2)c(=O)c2ccc(C(=O)NCc3ccco3)cc21 | inactive: 4.45% | 
22 | CCOc1ccc(NC(=O)N2CCC(CN3CCc4ccccc4C3)CC2)cc1 | inactive: -24.4% | 
23 | CCOCCCNC(=O)c1ccc(NC(=O)N2CCCCc3ccccc32)cc1 | inactive: -17.6% | 
24 | COc1ccccc1N1CCN(c2ccc(=O)n(CC(=O)Nc3ccc(F)c(F)c3)n2)CC1 | inactive: -20.7% | 

Row | Compound | activity change, negative = inhibition | Potency
25 | Cc1c(NC(=O)c2ccc(Cl)cc2)cc(C(C)C)c(O)c1S(=O)(=O)c1ccc(Cl)cc1 | inactive: -1.23% | 
26 | O=C(CCn1c(=O)c2cccn2c2ccc(F)cc21)NCCc1ccccc1 | inactive: -6.67% | 
27 | Cc1ccc(C)c(Nc2cc(C(=O)NC3CCCCC3)c3ccccc3n2)c1 | inactive: 7.1% | 
28 | CCC(=O)N1CCc2cc(CNC(=O)C(CC)c3ccccc3)ccc21 (stereo not drawn) | inactive: -14.5% | 
29 | Cc1ccccc1Cn1c(=O)n(CCc2ccccc2)c(=O)c2c(C)c(C)sc21 | inactive: 4.75% | 
30 | COc1cccc(OCCSc2nc3ccccc3n2CC(=O)N2CCCCC2)c1 | inactive: -26.3% | 
31 | COc1cccc(-n2cc(C(=O)NCc3ccccc3OC)c3ccccc3c2=O)c1 | inactive: -10.8% | 
32 | COc1ccc(-c2nc(CN3CCC(C(=O)NCCCOC(C)C)CC3)c(C)o2)cc1OC | inactive: -0.477% | 
33 | CCc1cc2c(cc3c(=O)n(CC(=O)NCCc4ccc(OC)c(OC)c4)ncn32)s1 | inactive: -9.62% | 
34 | COC(=O)c1cc(S(=O)(=O)NCC2CCN(Cc3cccc(F)c3)CC2)c[nH]1 | inactive: -14.8% | 
35 | O=C(CCn1ccc2cc(S(=O)(=O)N3CCCC3)ccc21)NCc1cccc(F)c1 | inactive: -22.7% | 
36 | COC(=O)CSc1nc(-c2ccc(F)cc2)cc(C(F)(F)F)n1 | inactive: -22.6% | 
37 | COc1ccc(OC)c(C2N=C(N)Nc3nc4ccccc4n32)c1 (stereo not drawn) | inactive: -11.9% | 
38 | COc1cc(OC)c(C2Nc3ccccc3-c3nnc(SCc4ccccc4)nc3O2)cc1OC (stereo not drawn) | inactive: 5.79% | 
39 | COc1ccc(NC(=O)Cn2c(=O)n(Cc3nc(C)no3)c(=O)c3cc4c(cc32)OCO4)cc1OC | inactive: -14.9% | 
40 | Cc1cccc(C)c1-n1ncc(C(=O)NCCN2CCOCC2)c1C1CCN(C(=O)OC(C)(C)C)CC1 | inactive: -23.3% | 
41 | Cc1nc(-c2ccc(Cl)cc2)sc1CCNC(=O)c1ccc(C(F)(F)F)cc1 | inactive: -10.4% | 
42 | Cc1ccc(C)c(NC(=O)CCn2nc(C)c3c(C)n(-c4ccccc4)nc3c2=O)c1 | inactive: -18% | 
43 | COc1ccccc1C(=O)OCc1cc(=O)n2nc(C3CC3)sc2n1 | inactive: 20.7% | 
44 | CCC1CCc2nc3sc(C(=O)Nc4ccc(F)c(Cl)c4)c(N)c3cc2C1 (stereo not drawn) | inactive: 2.01% | 
45 | Cc1ccc(C)c(NC(=O)c2ccc3c(c2)CCN3S(C)(=O)=O)c1 | inactive: -1.44% | 
46 | COc1ccccc1CNC(=O)CSc1ncc2c(n1)-c1ccc(Cl)cc1N(Cc1ccccc1)S2(=O)=O | inactive: -1.72% | 
47 | COc1ccc(NC(=O)C(c2ccc(C)cc2)N(C)C(=O)Cc2cccs2)cc1 (stereo not drawn) | inactive: 2.21% | 
48 | Cc1c(Cl)cccc1NC(=O)C(C)n1c(=O)cc(-c2ccccc2)c2c(C)nn(C)c21 (stereo not drawn) | inactive: 8.23% | 

Row | Compound | activity change, negative = inhibition | Potency
49 | O=C(Cn1c(-c2cccs2)cc2cc(Cl)ccc21)N1CCN(c2ccccc2)CC1 | inactive: -13.5% | 
50 | O=C(Cn1c(=O)c2cc(Cl)ccc2n2nncc12)Nc1ccccc1 | inactive: -7.99% | 
51 | O=C(CC(c1cccs1)N1Cc2ccccc2C1=O)Nc1ccc(F)c(Cl)c1 (stereo not drawn) | inactive: -21.1% | 
52 | C=CCC(CC=C)(CNC(=O)C(=O)Nc1cccc(C(F)(F)F)c1)c1ccccc1 | inactive: -2.54% | 
53 | Cc1cccc(-n2c(=O)c3c(c4cc(C)ccc4n3C)n(CC(=O)NCCC3=CCCCC3)c2=O)c1 | inactive: -11.7% | 
54 | CCC1CN(C(=O)N2CCC(C(=O)NCCN(CC)CC)CC2)c2ccccc2O1 (stereo not drawn) | inactive: -1.07% | 
55 | COc1ccc(-c2onc(C)c2C)cc1S(=O)(=O)NCC1CCN(Cc2ccccc2F)CC1 | inactive: -28.7% | 
56 | Cc1ccc(Oc2c(C(F)(F)F)oc3cc(OCC(=O)NC4CCCCC4)ccc3c2=O)cc1 | inactive: -4.36% | 
57 | CCCN1C(=O)C(O)(CC(=O)c2ccc(CC)cc2)c2ccccc21 (stereo not drawn) | inactive: -18.8% | 
58 | COc1ccc(C(=O)N(Cc2sccc2C)C2CCS(=O)(=O)C2)cc1Cl (stereo not drawn) | inactive: -14% | 
59 | CCN1CCN(C(=O)c2ccc3c(c2)N(Cc2ccc(Cl)cc2)C(=O)c2ccccc2S3(=O)=O)CC1 | inactive: -14.8% | 
60 | O=C(NCc1ccc2c(c1)OCO2)c1ccc2c(c1)N(Cc1cccc(Cl)c1)C(=O)c1ccccc1S2 | inactive: -22.8% | 
61 | Cc1cccc(N2CCN(C(=O)C3CCN(S(=O)(=O)c4c(C)noc4/C=C/c4ccccc4F)CC3)CC2)c1C | inactive: -17.9% | 
62 | O=C(Cn1ncc2c([nH]c3ccccc32)c1=O)Nc1cc(F)ccc1F | inactive: -5% | 
63 | O=C(Nc1nnc(S(=O)(=O)N2CCCCCC2)s1)c1ccc(Br)cc1 | inactive: -8.7% | 
64 | CC(=O)c1ccc(NC2=NS(=O)(=O)c3ccccc32)cc1 | inactive: -0.0269% | 
65 | Cc1cc(C)c(Cn2c3ccccc3c3cnn(CC(=O)NCCc4ccccc4)c(=O)c32)c(C)c1 | inactive: -15.6% | 
66 | CCc1cccc(C)c1NS(=O)(=O)c1c(C(=O)N2CCCCCC2)c(C)n(C)c1C | inactive: -0.0588% | 
67 | COc1ccc(Cl)cc1NC(=O)Cn1nnc2sc3c(c2c1=O)CCC(C(C)(C)C)C3 (stereo not drawn) | inactive: -5.79% | 
68 | CCOC(=O)c1c(Nc2cccc(O)c2)nnc(-c2ccccc2)c1-c1ccccc1 | inactive: -10.4% | 
69 | Cc1ccc(NC(=O)Cn2cc(S(=O)(=O)c3ccc(F)cc3)c(=O)c3cc4c(cc32)OCO4)cc1 | inactive: -16.8% | 
70 | Cc1ccc(NC(=O)CSc2nccn2C2CCCC2)cc1 | inactive: 9.36% | 
71 | CCOc1ccccc1C1CC(=O)NC(C)=C1C(=O)OC1CCCCCC1 (stereo not drawn) |  | active: 31.6 µM
72 | COc1cc(Cl)c(C)cc1NC(=O)CCCN1C(=O)C(c2ccccc2)Oc2cccnc21 (stereo not drawn) | inactive: -35.7% | 

Row | Compound | activity change, negative = inhibition | Potency
73 | COCCNC(=O)Cn1c(=O)n(Cc2ccc(C(=O)NCCc3ccc(OC)c(OC)c3)cc2)c(=O)c2ccccc21 | inactive: -6.51% | 
74 | Cc1cccc(Oc2nc3ccccn3c(=O)c2/C=C(\C#N)c2nc3ccccc3s2)c1C | inactive: -1.69% | 
75 | COc1ccc(-n2c3c(c(=O)[nH]c2=O)C(NC(C)=O)(C(F)(F)F)C(=O)N3)cc1 (stereo not drawn) | inactive: -14.7% | 
76 | COc1ccc(NC(=O)C2CCCN(S(=O)(=O)c3cn(C)cn3)C2)cc1Cl (stereo not drawn) | inactive: -29.4% | 
77 | CC(C)(C)C(=O)Cn1c(=O)n(CCCCCC(=O)NCc2ccc3c(c2)OCO3)c(=O)c2sccc21 | inactive: -13.9% | 
78 | CCCCn1cc(S(=O)(=O)c2ccc(CC)cc2)c(=O)c2cc(F)c(N3CCCC(C)C3)cc21 (stereo not drawn) | inactive: -4.05% | 
79 | Cc1ccc(C(=O)CSc2nc3cc(C(=O)NC4CCCC4)ccc3c(=O)n2CC2CCCO2)cc1 (stereo not drawn) | inactive: 7.43% | 
80 | CSc1cccc(NS(=O)(=O)c2ccc3[nH]cc(C(=O)N4CCCC4)c(=O)c3c2)c1 | inactive: 11.8% | 
81 | COc1cc(OC)c(NC(=O)c2c(C)nn(-c3ccc(C)cc3)c2-n2cccc2)cc1Cl | inactive: -7.78% | 
82 | COc1ccc(C(=O)NCCn2cc(SCC(=O)Nc3ccccc3)c3ccccc32)cc1OC | inactive: -20.9% | 
83 | Cc1cc(C)cc(NC(=O)C2CCCN2S(=O)(=O)c2ccc3c(c2)C(C)(C)C(=O)N3C)c1 (stereo not drawn) | inactive: -26.2% | 
84 | CCOC(=O)C1(C)C=C(Nc2ccc(OC)cc2)C(=O)N1c1ccccc1 (stereo not drawn) | inactive: 2% | 
85 | COc1ccccc1NC(=O)c1oc2ccccc2c1NC(=O)c1c(F)cccc1F | inactive: 7.16% | 
86 | Cc1cc(C)c(Cn2c3ccccc3c3cnn(CC(=O)NC4CCCCCC4)c(=O)c32)c(C)c1 | inactive: -11.1% | 
87 | COc1ccc(Cn2cc(C(=O)c3ccc(Cl)cc3)c(=O)c3cc4c(cc32)OCO4)cc1 | inactive: -25% | 
88 | CC(C)(Sc1cc(C(C)(C)C)c(O)c(C(C)(C)C)c1)Sc1cc(C(C)(C)C)c(O)c(C(C)(C)C)c1 | inactive | 
89 | CCc1ccc(Nc2nn3c(=O)c4cc5c(cc4nc3s2)OCO5)cc1 | inactive: 1.64% | 
90 | Cc1ccc(-n2nc3c(N4CCC(C(=O)N5CCC(C)CC5)CC4)nnc(C)c3c2C)cc1 | inactive: -16.8% | 
91 | O=C(Nc1cccc(Cl)c1Cl)c1cc(S(=O)(=O)N2CCC3(CC2)OCCO3)ccc1F | inactive: -22.4% | 
92 | CC(C)Cn1c(=O)c2sccc2n2c(CCCC(=O)NCC(C)c3ccccc3)nnc12 (stereo not drawn) | inactive: -20.8% | 
93 | O=C(NCCN1CCN(c2ccccc2F)CC1)C1COc2ccccc2C1 (stereo not drawn) | inactive: -18.4% | 
